# Test results published in the supplement of paper PMC9446081.
# In all, about 39,000 compounds went through this assay and about 220 (0.56%) showed activity. The list shows a part of the results.
# Test system: Escherichia coli K-12 BW25113
# Assay: relative growth (OD600 normalised to plate interquartile mean) (fraction); higher = less growth inhibition, active = 0.2 or less
# Conditions: 50 µM; LB; incubation time: overnight (16-24 h)
# 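Also: static incubation at 37 °C against the wild-type strain, values averaged over two biological replicates.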
row,Compound,relative growth
1,CN1CC2(CCN(C(=O)[C@H]3CCC(=O)N3)CC2)COc2ccccc2S1(=O)=O,inactive: 0.991
2,Nc1ccc(-c2ccco2)cc1,inactive: 1.02
3,C[C@H](CO)N1C[C@H](C)[C@H](CN(C)C(=O)Nc2ccc3c(c2)OCO3)Oc2c(NC(=O)c3cnccn3)cccc2C1=O,inactive: 0.99
4,Cn1c(C(=O)N2CCCO[C@@H](Cn3cccn3)C2)cc(=O)n(C)c1=O,inactive: 0.995
5,C[C@@H]1CCCCO[C@H](CN(C)C(=O)Nc2ccc3c(c2)OCO3)[C@H](C)CN([C@@H](C)CO)C(=O)c2cc(NC(=O)c3ccccc3)ccc2O1,inactive: 1.01
6,C[C@@H]1CN([C@@H](C)CO)C(=O)c2cc(NC(=O)Cn3cnnn3)ccc2O[C@@H]1CN(C)S(=O)(=O)c1cn(C)cn1,inactive: 1.02
7,Cc1ccc(S(=O)(=O)Nc2ccc3c(c2)C(=O)N([C@@H](C)CO)C[C@H](C)[C@@H](CN(C)C(=O)Nc2ccc(C(F)(F)F)cc2)OCCCC[C@H](C)O3)cc1,inactive: 1.02
8,CN1C(=O)c2cc(NC(=O)c3ccc(F)cc3)ccc2OC[C@H]2O[C@H](CC(=O)N3CCOCC3)CC[C@@H]21,inactive: 1.01
9,Cc1cc(N)no1,inactive: 0.987
10,Cc1cc2nc(C(=O)NC[C@H]3CCCS(=O)(=O)C3)cc(-c3ccccc3Cl)c2c(C)c1-c1ccncc1,inactive: 1.04
11,C[C@@H]1CCCCO[C@@H](CN(C)Cc2ccc(C(=O)O)cc2)[C@H](C)CN([C@@H](C)CO)C(=O)c2cc(NC(=O)Nc3ccc4c(c3)OCO4)ccc2O1,inactive: 1.02
12,C[C@@H]1CCCCO[C@@H](CN(C)C(=O)NC2CCCCC2)[C@H](C)CN([C@@H](C)CO)C(=O)c2cc(NC(=O)Nc3cccc4ccccc34)ccc2O1,inactive: 1.04
13,COCC(=O)Nc1ccc2c(c1)OC[C@@H](C)N(C(=O)Cc1cccnc1)C[C@@H](C)[C@H](OC)CN(C)C2=O,inactive: 1.01
14,CO[C@H]1[C@H](O)[C@@H](O)[C@H](O)[C@H](O)[C@@H]1O,inactive: 1.01
15,C[C@@H]1CN([C@H](C)CO)C(=O)c2cc(NC(=O)CCCN(C)C)ccc2O[C@@H](C)CCCCO[C@@H]1CN(C)S(C)(=O)=O,inactive: 0.815
16,Clc1cccc(Cl)c1CSCc1cc2ccccc2o1,inactive: 0.969
17,C[C@H](CO)N1C[C@H](C)[C@@H](CN(C)Cc2ccc(C(=O)O)cc2)OCCCC[C@H](C)Oc2ccc(NC(=O)Nc3ccccc3)cc2C1=O,inactive: 1.05
18,CO[C@@H]1CN(C)C(=O)c2cc(NC(=O)C3CC3)ccc2OC[C@@H](C)N(C(=O)Cc2ccccn2)C[C@@H]1C,inactive: 1.01
19,C=CC[C@@H](CC(=O)N[C@H](CO)Cc1ccccc1)C(=O)N[C@H](C)COC(=O)[C@H](CC=C)CC(=O)OC(C)(C)C,inactive: 0.992
20,C[C@@H]1CCCCO[C@@H](CN(C)S(=O)(=O)c2ccc(F)cc2)[C@@H](C)CN([C@@H](C)CO)C(=O)c2cc(NS(=O)(=O)c3ccc(Cl)cc3)ccc2O1,inactive: 0.982

row,Compound,relative growth
1,CN[C@@H](C)C(=O)N[C@H]1CN(C(=O)CC(C)C)CC[C@H]2CC[C@@H](C(=O)NC(c3ccccc3)c3ccccc3)N2C1=O,inactive: 0.987
2,Cc1ccc(S(=O)(=O)N(C)C[C@H]2OCCCC[C@@H](C)Oc3ccc(NC(=O)CCC(F)(F)F)cc3C(=O)N([C@@H](C)CO)C[C@H]2C)cc1,inactive: 0.997
3,C[C@H](CO)N1C[C@H](C)[C@@H](CN(C)CC2CC2)OCCCC[C@H](C)Oc2ccc(NC(=O)CCC(F)(F)F)cc2C1=O,inactive: 0.976
4,Nc1cc(=O)nc2[nH][nH]c(=S)n12,inactive: 0.963
5,C=CCN1C(=O)[C@@H]2[C@@H](C1=O)[C@@H]1C=C[C@@H]2C1,inactive: 0.981
6,C[C@@H]1CN([C@H](C)CO)C(=O)Cc2cc(NC(=O)Nc3cccc4ccccc34)ccc2O[C@@H]1CN(C)Cc1ccc(Cl)c(Cl)c1,inactive: 1.03
7,C[C@@H]1CN([C@@H](C)CO)C(=O)c2cccc(NC(=O)Nc3ccc(C(F)(F)F)cc3)c2O[C@@H]1CN(C)CC1CCCCC1,inactive: 0.956
8,C[C@H](CO)N1C[C@H](C)[C@@H](CN(C)C(=O)Nc2ccc(C(F)(F)F)cc2)Oc2ccc(NC(=O)Nc3ccc(C(F)(F)F)cc3)cc2CC1=O,inactive: 1.02
9,O=C(C[C@H]1CC[C@H]2[C@@H](COC[C@@H](O)CN2S(=O)(=O)c2ccc(F)cc2)O1)N[C@H]1CCN(Cc2ccccc2)C1,inactive: 1.03
10,CN1C(=O)c2cc(NS(C)(=O)=O)ccc2OC[C@@H]2O[C@H](CC(=O)N3CCOCC3)CC[C@@H]21,inactive: 1
11,C[C@H]1CN([C@@H](C)CO)C(=O)Cc2cc(NC(=O)Cn3cnnn3)ccc2O[C@@H]1CN(C)CC1CC1,inactive: 0.984
12,C[C@H](CO)N1C[C@H](C)[C@H](CN(C)C(=O)c2ccncc2)OCCCC[C@H](C)Oc2ccc(NS(=O)(=O)c3cn(C)cn3)cc2C1=O,inactive: 1
13,C[C@@H]1CN([C@H](C)CO)C(=O)c2cccc(NC(=O)Nc3ccc(F)cc3)c2O[C@H]1CN(C)Cc1ccc(Oc2ccccc2)cc1,inactive: 1
14,O=C(C[C@@H]1CC[C@H]2[C@@H](COC[C@H](O)CN2C(=O)Nc2ccc3c(c2)OCO3)O1)N1CCN(c2ccccc2)CC1,inactive: 0.992
15,COc1ccc(S(=O)(=O)N(C)C[C@@H]2OCc3cn(nn3)CCCC(=O)N([C@@H](C)CO)C[C@H]2C)cc1,inactive: 0.986
16,C[C@H]1CN([C@@H](C)CO)S(=O)(=O)c2ccc(C#CC3(O)CCCC3)cc2O[C@@H]1CN(C)C(=O)Cc1ccccc1,inactive: 0.983
17,O=C(CN1CCOCC1)N[C@H]1CC[C@@H](CCNC(=O)C2CCCCC2)O[C@H]1CO,inactive: 0.992
18,CCCC12CN3CC(CCC)(CN(C1)C3[C@@H](O)[C@@H](O)[C@@H](O)CO)C2=O (some centres undefined),inactive: 0.902
19,CCOC(=O)N(C)C[C@H]1OCc2cnnn2CCCC(=O)N([C@H](C)CO)C[C@H]1C,inactive: 0.999
